The other results are listed elsewhere or left out.
Legend:
Assay in all cases: glycan array binding signal (z-score within array); higher = stronger binding
Settings in all cases: glycan notation: IUPAC condensed, linker removed
[1] = target: Fuc(a1-2)[Gal(a1-3)]Gal(b1-4)GlcNAc(b1-2)Man(a1-3)[Fuc(a1-2)[Gal(a1-3)]Gal(b1-4)GlcNAc(b1-2)Man(a1-6)]Man(b1-4)GlcNAc(b1-4)GlcNAc
Summary of the method: (§1)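 The binding signal is a Z-score computed within each array and averaged over linkers. Arrays of the same protein sequence at different concentrations or buffers were also averaged together. Data originate from 3228 arrays in the Consortium for Functional Glycomics database, kept only where the protein sequence was available.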

[2] = target: Fuc(a1-2)[Gal(a1-3)]Gal(b1-4)GlcNAc(b1-2)Man(a1-3)[Fuc(a1-2)[Gal(a1-3)]Gal(b1-4)GlcNAc(b1-2)Man(a1-6)]Man(b1-4)GlcNAc(b1-4)[Fuc(a1-6)]GlcNAc
Summary of the method: as §1

[3] = target: Fuc(a1-2)[Gal(a1-3)]Gal(b1-4)GlcNAc(b1-3)GalNAc
Summary of the method: as §1

[4] = target: Fuc(a1-2)[Gal(a1-3)]Gal(b1-4)GlcNAc(b1-6)GalNAc
Summary of the method: as §1

[5] = target: Fuc(a1-2)[Gal(a1-3)]Gal(b1-4)[Fuc(a1-3)]Glc
Summary of the method: as §1

[6] = target: Fuc(a1-2)[Gal(a1-3)]Gal(b1-4)[Fuc(a1-3)]GlcNAc
Summary of the method: as §1

[7] = target: Fuc(a1-2)[Gal(a1-3)]Gal(b1-4)[Fuc(a1-3)]GlcNAc(b1-3)GalNAc
Summary of the method: as §1

[8] = target: Fuc(a1-2)[Gal(a1-4)]Gal(b1-4)GlcNAc
Summary of the method: as §1

[9] = target: Fuc(a1-2)[GalNAc(a1-3)]Gal
Summary of the method: as §1

[10] = target: Fuc(a1-2)[GalNAc(a1-3)]Gal(b1-3)GalNAc(a1-3)[Fuc(a1-2)]Gal(b1-4)GlcNAc
Summary of the method: as §1

[11] = target: Fuc(a1-2)[GalNAc(a1-3)]Gal(b1-3)GalNAc(b1-3)Gal(a1-4)Gal(b1-4)Glc
Summary of the method: as §1

[12] = target: Fuc(a1-2)[GalNAc(a1-3)]Gal(b1-3)GlcNAc
Summary of the method: as §1

[13] = target: Fuc(a1-2)[GalNAc(a1-3)]Gal(b1-3)GlcNAc(b1-2)Man(a1-3)[Fuc(a1-2)[GalNAc(a1-3)]Gal(b1-3)GlcNAc(b1-2)Man(a1-6)]Man(b1-4)GlcNAc(b1-4)GlcNAc
Summary of the method: as §1

[14] = target: Fuc(a1-2)[GalNAc(a1-3)]Gal(b1-3)GlcNAc(b1-2)Man(a1-3)[Fuc(a1-2)[GalNAc(a1-3)]Gal(b1-3)GlcNAc(b1-2)Man(a1-6)]Man(b1-4)GlcNAc(b1-4)[Fuc(a1-6)]GlcNAc
Summary of the method: as §1

[15] = target: Fuc(a1-2)[GalNAc(a1-3)]Gal(b1-3)GlcNAc(b1-3)GalNAc
Summary of the method: as §1

[16] = target: Fuc(a1-2)[GalNAc(a1-3)]Gal(b1-3)GlcNAc(b1-6)GalNAc
Summary of the method: as §1

[17] = target: Fuc(a1-2)[GalNAc(a1-3)]Gal(b1-4)Glc
Summary of the method: as §1

[18] = target: Fuc(a1-2)[GalNAc(a1-3)]Gal(b1-4)GlcNAc
Summary of the method: as §1

[19] = target: Fuc(a1-2)[GalNAc(a1-3)]Gal(b1-4)GlcNAc(b1-2)Man
Summary of the method: as §1

[20] = target: Fuc(a1-2)[GalNAc(a1-3)]Gal(b1-4)GlcNAc(b1-2)Man(a1-3)[Fuc(a1-2)[GalNAc(a1-3)]Gal(b1-4)GlcNAc(b1-2)Man(a1-6)]Man(b1-4)GlcNAc(b1-4)GlcNAc
Summary of the method: as §1

[21] = target: Fuc(a1-2)[GalNAc(a1-3)]Gal(b1-4)GlcNAc(b1-2)Man(a1-3)[Fuc(a1-2)[GalNAc(a1-3)]Gal(b1-4)GlcNAc(b1-2)Man(a1-6)]Man(b1-4)GlcNAc(b1-4)[Fuc(a1-6)]GlcNAc
Summary of the method: as §1

[22] = target: Fuc(a1-2)[GalNAc(a1-3)]Gal(b1-4)GlcNAc(b1-3)Gal(b1-4)GlcNAc
Summary of the method: as §1

[23] = target: Fuc(a1-2)[GalNAc(a1-3)]Gal(b1-4)GlcNAc(b1-3)Gal(b1-4)GlcNAc(b1-3)Gal(b1-4)GlcNAc
Summary of the method: as §1

[24] = target: Fuc(a1-2)[GalNAc(a1-3)]Gal(b1-4)GlcNAc(b1-3)GalNAc
Summary of the method: as §1

[25] = target: Fuc(a1-2)[GalNAc(a1-3)]Gal(b1-4)GlcNAc(b1-3)[Fuc(a1-2)[GalNAc(a1-3)]Gal(b1-4)GlcNAc(b1-6)]GalNAc
Summary of the method: as §1

[26] = target: Fuc(a1-2)[GalNAc(a1-3)]Gal(b1-4)GlcNAc(b1-6)GalNAc
Summary of the method: as §1

[27] = target: Fuc(a1-2)[GalNAc(a1-3)]Gal(b1-4)[Fuc(a1-3)]GlcNAc
Summary of the method: as §1

[28] = target: Fuc(a1-2)[GalNAc(a1-3)]Gal(b1-4)[Fuc(a1-3)]GlcNAc(b1-3)GalNAc
Summary of the method: as §1

[29] = target: Fuc(a1-2)[GalNAc(a1-4)]Gal(b1-4)GlcNAc
Summary of the method: as §1

[30] = target: Fuc(a1-2)[GalNAc(b1-3)]Gal
Summary of the method: as §1

Fuc(a1-3)GlcNAc = target: Fuc(a1-3)GlcNAc
Summary of the method: as §1

[31] = target: Fuc(a1-3)[Gal(b1-4)]Glc6S
Summary of the method: as §1

[32] = target: Fuc(a1-3)[Gal(b1-4)]GlcNAc
Summary of the method: as §1

[33] = target: Fuc(a1-3)[Gal(b1-4)]GlcNAc(b1-2)Man
Summary of the method: as §1

[34] = target: Fuc(a1-3)[Gal(b1-4)]GlcNAc(b1-2)Man(a1-3)[Fuc(a1-3)[Gal(b1-4)]GlcNAc(b1-2)Man(a1-6)]Man(b1-4)GlcNAc(b1-4)GlcNAc
Summary of the method: as §1

[35] = target: Fuc(a1-3)[Gal(b1-4)]GlcNAc(b1-2)Man(a1-3)[Fuc(a1-3)[Gal(b1-4)]GlcNAc(b1-2)Man(a1-6)]Man(b1-4)GlcNAc(b1-4)[Fuc(a1-6)]GlcNAc
Summary of the method: as §1

[36] = target: Fuc(a1-3)[Gal(b1-4)]GlcNAc(b1-3)Gal(b1-3)[Fuc(a1-4)]GlcNAc
Summary of the method: as §1

[37] = target: Fuc(a1-3)[Gal(b1-4)]GlcNAc(b1-3)GalNAc
Summary of the method: as §1

[38] = target: Fuc(a1-3)[Gal(b1-4)]GlcNAc(b1-4)Gal(b1-4)[Fuc(a1-3)]GlcNAc
Summary of the method: as §1

[39] = target: Fuc(a1-3)[Gal(b1-4)]GlcNAc(b1-4)Gal(b1-4)[Fuc(a1-3)]GlcNAc(b1-4)Gal(b1-4)[Fuc(a1-3)]GlcNAc
Summary of the method: as §1

[40] = target: Fuc(a1-3)[Gal(b1-4)]GlcNAc(b1-6)GalNAc
Summary of the method: as §1

[41] = target: Fuc(a1-3)[Gal(b1-4)]GlcNAc(b1-6)[Gal(b1-3)GlcNAc(b1-3)]Gal(b1-4)Glc
Summary of the method: as §1

[42] = target: Fuc(a1-3)[Gal(b1-4)]GlcNAc6S
Summary of the method: as §1

[43] = target: Fuc(a1-3)[Gal3S(b1-4)]Glc
Summary of the method: as §1

[44] = target: Fuc(a1-3)[Gal3S(b1-4)]GlcNAc
Summary of the method: as §1

B1: Threefoil (Haloarcula marismortui) (protein)
chain: GSSHHHHHHHHHHSSGLVPRGSHMGDGYYKLVARHSGKALDVENASTSDGANVIQYSYSGGDNQQWRLVDLGDGYYKLVARHSGKALDVENASTSDGANVIQYSYSGGDNQQWRLVDLGDGYYKLVARHSGKALDVENASTSDGANVIQYSYSGGDNQQWRLVDL
[1]
  glycan array binding signal (z-score): -0.135
[2]
  glycan array binding signal (z-score): -0.223
[3]
  glycan array binding signal (z-score): -0.182
[4]
  glycan array binding signal (z-score): -0.323
[5]
  glycan array binding signal (z-score): -0.186
[6]
  glycan array binding signal (z-score): -0.09
[7]
  glycan array binding signal (z-score): -0.309
[8]
  glycan array binding signal (z-score): -0.168
[9]
  glycan array binding signal (z-score): -0.17
[10]
  glycan array binding signal (z-score): -0.303
[11]
  glycan array binding signal (z-score): -0.169
[12]
  glycan array binding signal (z-score): -0.165
[13]
  glycan array binding signal (z-score): -0.052
[14]
  glycan array binding signal (z-score): -0.144
[15]
  glycan array binding signal (z-score): -0.266
[16]
  glycan array binding signal (z-score): -0.313
[17]
  glycan array binding signal (z-score): -0.222
[18]
  glycan array binding signal (z-score): -0.244
[19]
  glycan array binding signal (z-score): -0.136
[20]
  glycan array binding signal (z-score): -0.182
[21]
  glycan array binding signal (z-score): -0.315
[22]
  glycan array binding signal (z-score): -0.193
[23]
  glycan array binding signal (z-score): -0.252
[24]
  glycan array binding signal (z-score): -0.315
[25]
  glycan array binding signal (z-score): -0.062
[26]
  glycan array binding signal (z-score): -0.199
[27]
  glycan array binding signal (z-score): 0.063
[28]
  glycan array binding signal (z-score): -0.193
[29]
  glycan array binding signal (z-score): -0.341
[30]
  glycan array binding signal (z-score): 0.019
Fuc(a1-3)GlcNAc
  glycan array binding signal (z-score): -0.234
[31]
  glycan array binding signal (z-score): -0.191
[32]
  glycan array binding signal (z-score): -0.151
[33]
  glycan array binding signal (z-score): -0.331
[34]
  glycan array binding signal (z-score): -0.27
[35]
  glycan array binding signal (z-score): -0.101
[36]
  glycan array binding signal (z-score): -0.059
[37]
  glycan array binding signal (z-score): -0.138
[38]
  glycan array binding signal (z-score): -0.037
[39]
  glycan array binding signal (z-score): -0.211
[40]
  glycan array binding signal (z-score): -0.234
[41]
  glycan array binding signal (z-score): 0.266
[42]
  glycan array binding signal (z-score): -0.003
[43]
  glycan array binding signal (z-score): -0.243
[44]
  glycan array binding signal (z-score): -0.111
